Where “and” joins values, the source holds several entries; their conditions need not be identical. Identical values can stand only once. This continues a long series; more values of the same kind are listed elsewhere. Toxic doses and inconclusive results are not listed.
Tested on: CD2F1 mice, L1210 leukemia ip, survival T/C
Experiment: NCI In Vivo Anticancer Drug Screen. Data for tumor model L1210 Leukemia (intraperitoneal) in CD2F1 (CDF1) mice
Conditions: higher = longer survival
Method in brief: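 Mice carrying a transplanted tumor received test compound or vehicle alone. The value is the measurement in the treated group divided by that in the vehicle-treated control group.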

CN(Cc1cnc2nc(N)nc(N)c2n1)c1ccc(C(=O)N[C@@H](CCC(=O)O)C(=O)O)cc1
T/C (endpoint: mean survival time, dose: 0.06 mg/kg/injection, schedule: Q01DX009 (ip), vehicle: sodium bicarbonate): 101 % of control and 107 % of control
T/C (endpoint: mean survival time, dose: 0.13 mg/kg/injection, schedule: Q01DX009 (ip), vehicle: sodium bicarbonate): 105 % of control and 110 % of control
T/C (endpoint: mean survival time, dose: 0.18 mg/kg/injection, schedule: Q01DX009 (ip), vehicle: sodium bicarbonate): 104 % of control and 108 % of control
T/C (endpoint: mean survival time, dose: 0.19 mg/kg/injection, schedule: Q01DX009 (ip), vehicle: other): 109 % of control
T/C (endpoint: mean survival time, dose: 0.5 mg/kg/injection, schedule: Q01DX005 (ip), vehicle: sodium bicarbonate): 109 % of control
T/C (endpoint: mean survival time, dose: 0.75 mg/kg/injection, schedule: Q01DX015 (ip), vehicle: sodium bicarbonate): 197 % of control
T/C (endpoint: mean survival time, dose: 1.0 mg/kg/injection, schedule: Q02DX005 (ip), vehicle: sodium bicarbonate): 190 % of control
T/C (endpoint: mean survival time, dose: 1.0 mg/kg/injection, schedule: Q03HX024 (ip), vehicle: saline): 109 % of control
T/C (endpoint: mean survival time, dose: 1.2 mg/kg/injection, schedule: Q04DX003 (ip), vehicle: saline): 112 % of control
T/C (endpoint: mean survival time, dose: 1.25 mg/kg/injection, schedule: Q04DX003 (ip), vehicle: sodium bicarbonate): 96 % of control
T/C (endpoint: mean survival time, dose: 1.5 mg/kg/injection, schedule: Q01DX009 (ip), vehicle: alkali diluted with saline): 184 % of control
T/C (endpoint: mean survival time, dose: 2.0 mg/kg/injection, schedule: Q01DX009 (ip), vehicle: saline): 108 % of control
T/C (endpoint: mean survival time, dose: 2.0 mg/kg/injection, schedule: Q03HX008 (ip), vehicle: saline): 95 % of control
T/C (endpoint: mean survival time, dose: 3.0 mg/kg/injection, schedule: Q01DX009 (ip), vehicle: alkali diluted with saline): 88 % of control
T/C (endpoint: mean survival time, dose: 3.0 mg/kg/injection, schedule: Q01DX009 (ip), vehicle: other): 95 % of control
T/C (endpoint: mean survival time, dose: 3.0 mg/kg/injection, schedule: Q02DX005 (ip), vehicle: sodium bicarbonate): 105 % of control
T/C (endpoint: mean survival time, dose: 3.6 mg/kg/injection, schedule: Q01DX009 (ip), vehicle: sodium bicarbonate): 106 % of control
T/C (endpoint: mean survival time, dose: 4.0 mg/kg/injection, schedule: Q01DX005 (ip), vehicle: sodium bicarbonate): 95 % of control
T/C (endpoint: mean survival time, dose: 4.0 mg/kg/injection, schedule: Q01DX009 (ip), vehicle: saline): 86 % of control
T/C (endpoint: mean survival time, dose: 5.0 mg/kg/injection, schedule: Q01DX009 (ip), vehicle: sodium bicarbonate): 112 % of control
T/C (endpoint: mean survival time, dose: 6.1 mg/kg/injection, schedule: Q01DX009 (ip), vehicle: saline): 100 % of control
T/C (endpoint: mean survival time, dose: 8.0 mg/kg/injection, schedule: Q01DX001 (ip), vehicle: saline): 100 % of control
T/C (endpoint: mean survival time, dose: 8.0 mg/kg/injection, schedule: Q04DX003 (ip), vehicle: sodium bicarbonate): 195 % of control
T/C (endpoint: mean survival time, dose: 10.0 mg/kg/injection, schedule: Q01DX005 (ip), vehicle: sodium bicarbonate): 93 % of control
T/C (endpoint: mean survival time, dose: 10.0 mg/kg/injection, schedule: Q04DX004 (ip), vehicle: sodium bicarbonate): 194 % of control
T/C (endpoint: mean survival time, dose: 12.0 mg/kg/injection, schedule: Q01DX009 (ip), vehicle: sodium bicarbonate): 105 % of control
T/C (endpoint: mean survival time, dose: 12.2 mg/kg/injection, schedule: Q01DX009 (ip), vehicle: saline): 90 % of control
T/C (endpoint: mean survival time, dose: 15.0 mg/kg/injection, schedule: Q04DX004 (ip), vehicle: sodium bicarbonate): 206 % of control
T/C (endpoint: mean survival time, dose: 18.4 mg/kg/injection, schedule: Q04DX003 (ip), vehicle: saline): 185 % of control
T/C (endpoint: mean survival time, dose: 20.0 mg/kg/injection, schedule: Q04DX004 (ip), vehicle: sodium bicarbonate): 184 % of control and 208 % of control and 237 % of control
T/C (endpoint: mean survival time, dose: 25.0 mg/kg/injection, schedule: Q04DX004 (ip), vehicle: sodium bicarbonate): 194 % of control and 198 % of control
T/C (endpoint: mean survival time, dose: 30.0 mg/kg/injection, schedule: Q04DX003 (ip), vehicle: sodium bicarbonate): 191 % of control
T/C (endpoint: mean survival time, dose: 40.0 mg/kg/injection, schedule: Q01DX005 (ip), vehicle: sodium bicarbonate): 86 % of control
T/C (endpoint: mean survival time, dose: 60.0 mg/kg/injection, schedule: Q04DX003 (ip), vehicle: sodium bicarbonate): 90 % of control and 107 % of control
T/C (endpoint: mean survival time, dose: 80.0 mg/kg/injection, schedule: Q04DX003 (ip), vehicle: sodium bicarbonate): 106 % of control
T/C (endpoint: median survival time, dose: 0.15 mg/kg/injection, schedule: Q06HX024 (ip), vehicle: saline): 101 % of control
T/C (endpoint: median survival time, dose: 0.19 mg/kg/injection, schedule: Q01DX009 (ip), vehicle: sodium bicarbonate): 110 % of control
T/C (endpoint: median survival time, dose: 0.3 mg/kg/injection, schedule: Q06HX024 (ip), vehicle: saline): 108 % of control
T/C (endpoint: median survival time, dose: 1.0 mg/kg/injection, schedule: Q01DX009 (ip), vehicle: saline): 204 % of control
T/C (endpoint: median survival time, dose: 1.44 mg/kg/injection, schedule: Q01DX009 (ip), vehicle: sodium bicarbonate): 191 % of control
T/C (endpoint: median survival time, dose: 2.0 mg/kg/injection, schedule: Q01DX009 (ip), vehicle: saline): 243 % of control
T/C (endpoint: median survival time, dose: 2.4 mg/kg/injection, schedule: Q01DX009 (ip), vehicle: sodium bicarbonate): 198 % of control
T/C (endpoint: median survival time, dose: 2.5 mg/kg/injection, schedule: Q01DX009 (ip), vehicle: sodium bicarbonate): 186 % of control
T/C (endpoint: median survival time, dose: 3.0 mg/kg/injection, schedule: Q01DX009 (ip), vehicle: sodium bicarbonate): 185 % of control and 215 % of control
T/C (endpoint: median survival time, dose: 3.5 mg/kg/injection, schedule: Q01DX009 (ip), vehicle: sodium bicarbonate): 210 % of control
T/C (endpoint: median survival time, dose: 6.25 mg/kg/injection, schedule: Q01DX001 (ip), vehicle: sodium bicarbonate): 106 % of control
T/C (endpoint: median survival time, dose: 9.0 mg/kg/injection, schedule: Q04DX003 (ip), vehicle: sodium bicarbonate): 185 % of control
T/C (endpoint: median survival time, dose: 15.0 mg/kg/injection, schedule: Q04DX003 (ip), vehicle: sodium bicarbonate): 192 % of control
T/C (endpoint: median survival time, dose: 43.0 mg/kg/injection, schedule: Q01DX001 (ip), vehicle: sodium bicarbonate): 112 % of control

Source: PubChem BioAssay AID256 (DTP/NCI, 2004)
